{"source": "paper PMC4336329", "about": "(PLoS ONE, 2015)", "note": "Out of some 310,000 compounds screened, about 14,000 (4.5%) showed an effect of 50% or more. The effect is printed as a negative number. The list shows a part of the results.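 Also: peak tail current of the secondary pulse compared with the same well before compound.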"}
{"target": "human ether-à-go-go-related gene (hERG) potassium channel (human, UniProt Q12809)", "sequence (Q12809 whole entry, looked up)": "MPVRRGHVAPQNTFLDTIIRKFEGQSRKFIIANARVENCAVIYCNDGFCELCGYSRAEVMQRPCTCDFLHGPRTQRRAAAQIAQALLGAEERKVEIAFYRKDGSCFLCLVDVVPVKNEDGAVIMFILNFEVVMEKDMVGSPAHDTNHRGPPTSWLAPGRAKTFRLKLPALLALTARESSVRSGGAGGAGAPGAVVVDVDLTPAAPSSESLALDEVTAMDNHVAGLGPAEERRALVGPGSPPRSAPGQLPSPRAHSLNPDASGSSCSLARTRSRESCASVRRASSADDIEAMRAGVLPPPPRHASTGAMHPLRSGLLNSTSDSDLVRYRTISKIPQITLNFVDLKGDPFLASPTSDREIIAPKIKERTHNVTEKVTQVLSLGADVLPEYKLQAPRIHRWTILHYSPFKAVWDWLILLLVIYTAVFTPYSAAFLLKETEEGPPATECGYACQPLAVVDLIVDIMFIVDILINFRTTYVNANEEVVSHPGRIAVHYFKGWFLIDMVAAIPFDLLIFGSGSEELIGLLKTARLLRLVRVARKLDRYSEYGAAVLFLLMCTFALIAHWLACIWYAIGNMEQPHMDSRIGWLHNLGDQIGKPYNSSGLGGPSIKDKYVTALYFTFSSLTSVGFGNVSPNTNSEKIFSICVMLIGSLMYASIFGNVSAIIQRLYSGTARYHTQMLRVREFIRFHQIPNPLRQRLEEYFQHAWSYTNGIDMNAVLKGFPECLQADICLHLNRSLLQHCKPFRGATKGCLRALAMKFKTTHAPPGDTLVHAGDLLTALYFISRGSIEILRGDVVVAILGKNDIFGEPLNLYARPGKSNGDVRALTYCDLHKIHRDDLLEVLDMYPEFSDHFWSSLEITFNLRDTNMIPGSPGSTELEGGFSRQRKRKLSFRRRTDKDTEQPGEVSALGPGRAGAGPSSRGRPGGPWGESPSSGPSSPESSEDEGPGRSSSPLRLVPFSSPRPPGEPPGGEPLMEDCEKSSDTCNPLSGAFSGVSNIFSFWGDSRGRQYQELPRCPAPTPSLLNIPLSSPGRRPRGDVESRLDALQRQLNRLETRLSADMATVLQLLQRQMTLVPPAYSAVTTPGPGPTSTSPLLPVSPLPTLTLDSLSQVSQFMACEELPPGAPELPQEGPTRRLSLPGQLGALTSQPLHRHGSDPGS", "test": "primary screen, population patch clamp on CHO cells stably expressing hERG", "units": {"hERG current change (%, negative = inhibition) at 10uM": "%"}}
{"smiles": "CCOC(=O)c1ccc(N=Cc2c(O)n(-c3ccc(OC)cc3)c(=S)[nH]c2=O)cc1", "hERG current change (%, negative = inhibition) at 10uM": 22.1}
{"smiles": "Oc1ccccc1C=NCCN=Cc1ccccc1O", "hERG current change (%, negative = inhibition) at 10uM": -7.43}
{"smiles": "CC(=O)c1cccc(NC(=O)NCc2ccco2)c1", "hERG current change (%, negative = inhibition) at 10uM": -2.14}
{"smiles": "CCN1C(=O)C(=O)N(CC(=O)c2[nH]c(C)c(C(C)=O)c2C)C1=O", "hERG current change (%, negative = inhibition) at 10uM": 0.992}
{"smiles": "CCOC(=O)C(C)(CC)NC(=O)CSP(=S)(OCC)OCC", "note": "(stereo not drawn)", "hERG current change (%, negative = inhibition) at 10uM": 3.79}
{"smiles": "COC(=O)c1sc(NC(=O)c2oc3ccccc3c2C)nc1C", "hERG current change (%, negative = inhibition) at 10uM": 8.99}
{"smiles": "O=[N+]([O-])c1ccccc1S(=O)(=O)NC1CCCC1", "hERG current change (%, negative = inhibition) at 10uM": 7.33}
{"smiles": "CSc1ccc(Cl)c(C(=O)OCC(=O)N(C)CCC#N)c1", "hERG current change (%, negative = inhibition) at 10uM": -15.2}
{"smiles": "COc1ccccc1NC(=O)Cn1cnc2c(oc3ccccc32)c1=O", "hERG current change (%, negative = inhibition) at 10uM": -13.6}
{"smiles": "O=C(CSC1=NS(=O)(=O)c2ccccc2N1)Nc1ccccc1F", "hERG current change (%, negative = inhibition) at 10uM": 8.64}
{"smiles": "c1ccc(Cc2nnc(N3CCCCC3)c3ccccc23)cc1", "hERG current change (%, negative = inhibition) at 10uM": -26.7}
{"smiles": "COc1ccc(NC(=S)N2CCN(C(=O)c3ccco3)CC2)cc1OC", "hERG current change (%, negative = inhibition) at 10uM": 14.6}
{"smiles": "CN(CCNC(=O)C1CCC(=O)N(Cc2cccc(F)c2)C1)CCc1ccccc1", "note": "(stereo not drawn)", "hERG current change (%, negative = inhibition) at 10uM": -46.3}
{"smiles": "COc1cccc2cc(C(=O)N3CCN(C(=O)c4ccco4)CC3)c(=O)oc12", "hERG current change (%, negative = inhibition) at 10uM": 0.583}
{"smiles": "COc1ccc(Br)cc1CNCCc1ccc2c(c1)OCO2", "hERG current change (%, negative = inhibition) at 10uM": -60.7}
{"smiles": "Cc1ccc(OCc2nnc(SCC(=O)Nc3ccc(N4CCOCC4)cc3)o2)cc1", "hERG current change (%, negative = inhibition) at 10uM": 12.6}
{"smiles": "CCOC(=O)/C=c1\\s/c(=C(\\C#N)C(N)=O)n(-c2ccccc2)c1=O", "hERG current change (%, negative = inhibition) at 10uM": 2.68}
{"smiles": "Cc1cc(C)c(C(=O)Cn2nc(C)c([N+](=O)[O-])c2C)cc1C", "hERG current change (%, negative = inhibition) at 10uM": 7.58}
{"smiles": "CC(=O)N1CCCc2cc(S(=O)(=O)N3CCCC(C(=O)NCc4ccc(Cl)cc4)C3)ccc21", "note": "(stereo not drawn)", "hERG current change (%, negative = inhibition) at 10uM": -10.4}
{"smiles": "COc1ccc(S(=O)(=O)N2CCN(c3cccc(C)c3C)CC2)cc1", "hERG current change (%, negative = inhibition) at 10uM": -0.301}
{"smiles": "CCC(=O)Nn1c(C)nnc1C", "hERG current change (%, negative = inhibition) at 10uM": 2.96}
{"smiles": "COc1ccccc1C(=O)NNC(=O)c1ccc(Br)cc1", "hERG current change (%, negative = inhibition) at 10uM": 19.6}
{"smiles": "CCNC(=O)CCS(=O)(=O)c1ccc2ccccc2c1", "hERG current change (%, negative = inhibition) at 10uM": 13.3}
{"smiles": "CS(=O)(=O)c1cccc(NC(=O)C2CC2)c1", "hERG current change (%, negative = inhibition) at 10uM": 2.74}
{"smiles": "O=C(C1CCN(C2CC(=O)N(c3cccc(Cl)c3)C2=O)CC1)N1CCCC1", "note": "(stereo not drawn)", "hERG current change (%, negative = inhibition) at 10uM": 7.53}
{"smiles": "COc1ccc(CCNS(=O)(=O)c2csc(C(N)=O)c2)cc1OC", "hERG current change (%, negative = inhibition) at 10uM": 17.9}
{"smiles": "O=C(CSc1ncn[nH]1)NCCc1ccccc1", "hERG current change (%, negative = inhibition) at 10uM": 5.95}
{"smiles": "COc1ccc(CC2(CO)CCN(Cc3cnc(-c4ccccc4C)nc3)CC2)cc1", "hERG current change (%, negative = inhibition) at 10uM": -20.6}
{"smiles": "COc1ccc(C(=O)NNC2=NC(C)(C)Cc3cc(C)c(C)cc32)cc1", "hERG current change (%, negative = inhibition) at 10uM": 25.3}
{"smiles": "COc1ccc(C(=O)Nc2cc(-c3nn4c(C)nnc4s3)ccc2C)cc1", "hERG current change (%, negative = inhibition) at 10uM": -41.8}
{"smiles": "Cc1cc(NC(=O)CCC(=O)N(C2CC2)C(C(=O)NC(C)(C)C)c2ccccc2Cl)no1", "note": "(stereo not drawn)", "hERG current change (%, negative = inhibition) at 10uM": 9.81}
{"smiles": "COC(=O)C1=C(CSc2nc3c(cc2C#N)CN(C)CC3)OC(N)=C(C#N)C1c1ccc(F)cc1", "note": "(stereo not drawn)", "hERG current change (%, negative = inhibition) at 10uM": -28.5}
{"smiles": "CC(=O)OCC[N+](C)(C)C.[Cl-]", "hERG current change (%, negative = inhibition) at 10uM": 29.2}
{"smiles": "COC(C/C=C/[C@@H](O)[C@@H](C)OCc1ccccc1)OC", "hERG current change (%, negative = inhibition) at 10uM": 15.7}
{"smiles": "CCC/C=C(\\CCC)C(NP(=O)(c1ccccc1)c1ccccc1)c1ccccc1", "note": "(stereo not drawn)", "hERG current change (%, negative = inhibition) at 10uM": 1.59}
{"smiles": "Cc1cc(NC(=O)CSc2ncnc3sccc23)no1", "hERG current change (%, negative = inhibition) at 10uM": 14.4}
{"smiles": "CCOC(=O)CSc1cc(C)nc2ccc(OC)cc12", "hERG current change (%, negative = inhibition) at 10uM": 7.42}
{"smiles": "O=C1Nc2ccccc2N(O)N1c1ccc(S(=O)(=O)Nc2ccccn2)cc1", "hERG current change (%, negative = inhibition) at 10uM": 15.8}
{"smiles": "Cc1cccc2cc(C#N)c(NCCNS(=O)(=O)c3ccc4c(c3)OCCO4)nc12", "hERG current change (%, negative = inhibition) at 10uM": 6.43}
{"smiles": "COc1cccc(NC(=O)c2c(C)cc(C)cc2CC(C)(C)C(=O)O)c1", "hERG current change (%, negative = inhibition) at 10uM": 12.9}
{"smiles": "O=C(CCCCn1c(=O)[nH]c2ccccc2c1=O)NC1CCN(Cc2ccccc2)CC1", "hERG current change (%, negative = inhibition) at 10uM": -18.9}
{"smiles": "Cc1sc(NC(=O)C2=COCCO2)nc1-c1ccc(Br)cc1", "hERG current change (%, negative = inhibition) at 10uM": 6.47}
{"smiles": "CC(C)Sc1ncnc2c1cnn2-c1ccccc1", "hERG current change (%, negative = inhibition) at 10uM": 3.86}
{"smiles": "COC(=O)c1ccc(C)c(NC(=O)CCc2ccc(OC)cc2)c1", "hERG current change (%, negative = inhibition) at 10uM": -3.01}
{"smiles": "CC1(C)CC2CC(C)(CN2C(=O)CCCN2C(=O)c3ccccc3C2=O)C1", "note": "(stereo not drawn)", "hERG current change (%, negative = inhibition) at 10uM": -17.9}
{"smiles": "Cc1cc(O)cc(O)c1C=NCc1ccco1", "hERG current change (%, negative = inhibition) at 10uM": -8.53}
{"smiles": "N#C/C(=C/c1ccc(Br)s1)C(=O)NCCc1c[nH]c2ccccc12", "hERG current change (%, negative = inhibition) at 10uM": 18.8}
{"smiles": "COc1ccc(C)cc1NC(=O)CN1C(=O)COc2ccc(S(=O)(=O)N3CCOCC3)cc21", "hERG current change (%, negative = inhibition) at 10uM": 15.5}
{"smiles": "CCn1cc(CN2CCC(n3nccc3NC(=O)CCOc3ccccc3)CC2)cn1", "hERG current change (%, negative = inhibition) at 10uM": -12.9}
{"smiles": "CC(C)(O)CCc1c(-c2ccc(O)cc2O)oc2c3c(cc(O)c2c1=O)OC(C)(C)C=C3", "hERG current change (%, negative = inhibition) at 10uM": 13.7}
{"smiles": "CC(C)(C)C1CCC(C(=O)Nc2cccnc2)CC1", "note": "(stereo not drawn)", "hERG current change (%, negative = inhibition) at 10uM": -36.4}
{"smiles": "COc1ccc(C(CNC(=O)c2ccc(-c3ccccc3)cc2)N(C)C)cc1OC", "note": "(stereo not drawn)", "hERG current change (%, negative = inhibition) at 10uM": -24.4}
{"smiles": "O=C(c1ccc2c3c(cccc13)CC2)C1CCCN(C(=O)c2cccnc2)C1", "note": "(stereo not drawn)", "hERG current change (%, negative = inhibition) at 10uM": -19.4}
{"smiles": "CCCCN(C(=O)CCC(=O)Nc1cc(C)on1)C(C(=O)NC1CCCC1)c1ccccc1C", "note": "(stereo not drawn)", "hERG current change (%, negative = inhibition) at 10uM": -8.67}
{"smiles": "Cc1cccc(-n2[nH]c(C)c(C=Nc3ccc4[nH]c(=O)[nH]c4c3)c2=O)c1", "hERG current change (%, negative = inhibition) at 10uM": -0.0304}
{"smiles": "C#Cc1ccc(CN2CCN(Cc3ccsc3)C(CCO)C2)cc1", "note": "(stereo not drawn)", "hERG current change (%, negative = inhibition) at 10uM": -34.6}
{"smiles": "C=CCNC(=O)c1cc2c(=O)n3ccccc3nc2s1", "hERG current change (%, negative = inhibition) at 10uM": 10.4}
